For 4 molecules, binding results are on record in publication PMC5380967.

Protein sequences, listed by entry. Tags and fused reporters are not part of them.
UniProt Q93008: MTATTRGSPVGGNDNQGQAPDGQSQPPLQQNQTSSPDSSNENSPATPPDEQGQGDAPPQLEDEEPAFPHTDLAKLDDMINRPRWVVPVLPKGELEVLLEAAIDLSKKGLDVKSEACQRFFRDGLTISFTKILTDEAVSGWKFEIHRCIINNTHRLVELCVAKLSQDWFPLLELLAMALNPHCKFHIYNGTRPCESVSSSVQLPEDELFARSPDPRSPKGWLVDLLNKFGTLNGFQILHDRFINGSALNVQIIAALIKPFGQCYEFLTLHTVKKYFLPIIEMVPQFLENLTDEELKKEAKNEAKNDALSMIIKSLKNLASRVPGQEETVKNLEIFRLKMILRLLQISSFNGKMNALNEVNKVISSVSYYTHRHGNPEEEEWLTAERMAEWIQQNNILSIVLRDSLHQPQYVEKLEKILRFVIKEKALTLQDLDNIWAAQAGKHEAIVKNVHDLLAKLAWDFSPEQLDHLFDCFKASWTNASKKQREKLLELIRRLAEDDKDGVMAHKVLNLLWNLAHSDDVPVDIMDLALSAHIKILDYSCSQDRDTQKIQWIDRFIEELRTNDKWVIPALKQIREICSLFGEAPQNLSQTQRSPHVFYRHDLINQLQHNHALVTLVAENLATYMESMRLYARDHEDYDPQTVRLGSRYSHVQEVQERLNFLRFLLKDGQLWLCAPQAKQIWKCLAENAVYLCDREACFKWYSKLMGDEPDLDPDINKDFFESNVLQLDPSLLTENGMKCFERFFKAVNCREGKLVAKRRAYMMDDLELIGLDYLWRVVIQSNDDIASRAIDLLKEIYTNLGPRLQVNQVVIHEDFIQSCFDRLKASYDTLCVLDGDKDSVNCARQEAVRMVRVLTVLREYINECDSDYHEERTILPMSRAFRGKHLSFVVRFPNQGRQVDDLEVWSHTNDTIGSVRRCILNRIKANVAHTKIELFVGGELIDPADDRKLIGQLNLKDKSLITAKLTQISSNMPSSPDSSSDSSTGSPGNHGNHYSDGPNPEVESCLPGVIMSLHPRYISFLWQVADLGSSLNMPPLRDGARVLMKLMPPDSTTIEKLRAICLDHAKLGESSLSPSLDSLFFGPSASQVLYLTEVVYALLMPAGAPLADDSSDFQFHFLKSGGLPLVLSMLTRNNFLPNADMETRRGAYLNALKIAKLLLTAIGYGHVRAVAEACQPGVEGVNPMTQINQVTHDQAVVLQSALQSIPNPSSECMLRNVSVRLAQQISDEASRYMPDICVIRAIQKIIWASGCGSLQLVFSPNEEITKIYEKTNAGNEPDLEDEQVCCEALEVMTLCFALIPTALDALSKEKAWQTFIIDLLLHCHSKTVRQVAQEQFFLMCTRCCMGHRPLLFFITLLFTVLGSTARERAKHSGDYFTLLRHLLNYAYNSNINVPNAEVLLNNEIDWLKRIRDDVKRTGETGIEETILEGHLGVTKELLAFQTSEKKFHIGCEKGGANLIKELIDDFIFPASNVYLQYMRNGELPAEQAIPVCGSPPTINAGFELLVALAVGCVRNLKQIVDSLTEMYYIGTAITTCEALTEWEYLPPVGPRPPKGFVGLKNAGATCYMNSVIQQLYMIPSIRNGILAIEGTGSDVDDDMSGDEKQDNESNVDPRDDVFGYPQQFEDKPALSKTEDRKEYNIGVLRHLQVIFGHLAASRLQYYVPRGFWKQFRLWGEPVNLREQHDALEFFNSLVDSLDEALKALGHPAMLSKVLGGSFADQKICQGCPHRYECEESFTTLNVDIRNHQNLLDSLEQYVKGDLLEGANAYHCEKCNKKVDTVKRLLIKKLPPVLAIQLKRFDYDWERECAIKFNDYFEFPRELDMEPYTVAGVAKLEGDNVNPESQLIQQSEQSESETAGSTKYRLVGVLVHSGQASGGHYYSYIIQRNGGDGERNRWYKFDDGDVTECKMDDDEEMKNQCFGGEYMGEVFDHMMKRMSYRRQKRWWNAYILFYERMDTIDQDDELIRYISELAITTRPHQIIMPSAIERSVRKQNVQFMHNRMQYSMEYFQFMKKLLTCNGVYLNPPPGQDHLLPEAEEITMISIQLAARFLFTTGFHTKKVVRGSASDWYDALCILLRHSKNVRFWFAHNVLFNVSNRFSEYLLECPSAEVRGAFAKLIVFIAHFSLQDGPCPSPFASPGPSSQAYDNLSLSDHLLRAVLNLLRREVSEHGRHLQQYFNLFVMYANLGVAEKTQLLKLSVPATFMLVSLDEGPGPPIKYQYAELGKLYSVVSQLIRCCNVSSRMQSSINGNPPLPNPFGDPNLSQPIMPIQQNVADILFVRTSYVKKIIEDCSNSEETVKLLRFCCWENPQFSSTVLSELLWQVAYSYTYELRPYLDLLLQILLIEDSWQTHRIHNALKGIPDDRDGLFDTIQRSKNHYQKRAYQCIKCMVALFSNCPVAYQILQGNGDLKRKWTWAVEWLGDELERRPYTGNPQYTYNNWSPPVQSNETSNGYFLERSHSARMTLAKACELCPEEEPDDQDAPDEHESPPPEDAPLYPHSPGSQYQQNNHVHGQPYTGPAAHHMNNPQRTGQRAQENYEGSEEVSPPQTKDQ
UniProt O14744: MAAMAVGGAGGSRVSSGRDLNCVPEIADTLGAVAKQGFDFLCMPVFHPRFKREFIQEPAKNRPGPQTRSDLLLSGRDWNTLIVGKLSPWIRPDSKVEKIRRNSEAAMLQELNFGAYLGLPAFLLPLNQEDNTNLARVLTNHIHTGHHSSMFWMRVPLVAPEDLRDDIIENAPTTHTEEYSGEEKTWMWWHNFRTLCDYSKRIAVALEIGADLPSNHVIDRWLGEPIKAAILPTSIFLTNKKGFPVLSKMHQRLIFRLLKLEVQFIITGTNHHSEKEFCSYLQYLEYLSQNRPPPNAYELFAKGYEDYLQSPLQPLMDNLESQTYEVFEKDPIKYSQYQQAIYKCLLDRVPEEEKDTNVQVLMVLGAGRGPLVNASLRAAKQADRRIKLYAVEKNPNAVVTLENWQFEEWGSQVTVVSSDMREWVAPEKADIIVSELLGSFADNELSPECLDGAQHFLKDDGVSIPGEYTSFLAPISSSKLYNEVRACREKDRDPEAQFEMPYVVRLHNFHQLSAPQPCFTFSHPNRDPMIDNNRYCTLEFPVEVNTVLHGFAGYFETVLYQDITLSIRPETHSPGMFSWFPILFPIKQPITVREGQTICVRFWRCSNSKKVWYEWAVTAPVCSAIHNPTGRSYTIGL
UniProt Q15154: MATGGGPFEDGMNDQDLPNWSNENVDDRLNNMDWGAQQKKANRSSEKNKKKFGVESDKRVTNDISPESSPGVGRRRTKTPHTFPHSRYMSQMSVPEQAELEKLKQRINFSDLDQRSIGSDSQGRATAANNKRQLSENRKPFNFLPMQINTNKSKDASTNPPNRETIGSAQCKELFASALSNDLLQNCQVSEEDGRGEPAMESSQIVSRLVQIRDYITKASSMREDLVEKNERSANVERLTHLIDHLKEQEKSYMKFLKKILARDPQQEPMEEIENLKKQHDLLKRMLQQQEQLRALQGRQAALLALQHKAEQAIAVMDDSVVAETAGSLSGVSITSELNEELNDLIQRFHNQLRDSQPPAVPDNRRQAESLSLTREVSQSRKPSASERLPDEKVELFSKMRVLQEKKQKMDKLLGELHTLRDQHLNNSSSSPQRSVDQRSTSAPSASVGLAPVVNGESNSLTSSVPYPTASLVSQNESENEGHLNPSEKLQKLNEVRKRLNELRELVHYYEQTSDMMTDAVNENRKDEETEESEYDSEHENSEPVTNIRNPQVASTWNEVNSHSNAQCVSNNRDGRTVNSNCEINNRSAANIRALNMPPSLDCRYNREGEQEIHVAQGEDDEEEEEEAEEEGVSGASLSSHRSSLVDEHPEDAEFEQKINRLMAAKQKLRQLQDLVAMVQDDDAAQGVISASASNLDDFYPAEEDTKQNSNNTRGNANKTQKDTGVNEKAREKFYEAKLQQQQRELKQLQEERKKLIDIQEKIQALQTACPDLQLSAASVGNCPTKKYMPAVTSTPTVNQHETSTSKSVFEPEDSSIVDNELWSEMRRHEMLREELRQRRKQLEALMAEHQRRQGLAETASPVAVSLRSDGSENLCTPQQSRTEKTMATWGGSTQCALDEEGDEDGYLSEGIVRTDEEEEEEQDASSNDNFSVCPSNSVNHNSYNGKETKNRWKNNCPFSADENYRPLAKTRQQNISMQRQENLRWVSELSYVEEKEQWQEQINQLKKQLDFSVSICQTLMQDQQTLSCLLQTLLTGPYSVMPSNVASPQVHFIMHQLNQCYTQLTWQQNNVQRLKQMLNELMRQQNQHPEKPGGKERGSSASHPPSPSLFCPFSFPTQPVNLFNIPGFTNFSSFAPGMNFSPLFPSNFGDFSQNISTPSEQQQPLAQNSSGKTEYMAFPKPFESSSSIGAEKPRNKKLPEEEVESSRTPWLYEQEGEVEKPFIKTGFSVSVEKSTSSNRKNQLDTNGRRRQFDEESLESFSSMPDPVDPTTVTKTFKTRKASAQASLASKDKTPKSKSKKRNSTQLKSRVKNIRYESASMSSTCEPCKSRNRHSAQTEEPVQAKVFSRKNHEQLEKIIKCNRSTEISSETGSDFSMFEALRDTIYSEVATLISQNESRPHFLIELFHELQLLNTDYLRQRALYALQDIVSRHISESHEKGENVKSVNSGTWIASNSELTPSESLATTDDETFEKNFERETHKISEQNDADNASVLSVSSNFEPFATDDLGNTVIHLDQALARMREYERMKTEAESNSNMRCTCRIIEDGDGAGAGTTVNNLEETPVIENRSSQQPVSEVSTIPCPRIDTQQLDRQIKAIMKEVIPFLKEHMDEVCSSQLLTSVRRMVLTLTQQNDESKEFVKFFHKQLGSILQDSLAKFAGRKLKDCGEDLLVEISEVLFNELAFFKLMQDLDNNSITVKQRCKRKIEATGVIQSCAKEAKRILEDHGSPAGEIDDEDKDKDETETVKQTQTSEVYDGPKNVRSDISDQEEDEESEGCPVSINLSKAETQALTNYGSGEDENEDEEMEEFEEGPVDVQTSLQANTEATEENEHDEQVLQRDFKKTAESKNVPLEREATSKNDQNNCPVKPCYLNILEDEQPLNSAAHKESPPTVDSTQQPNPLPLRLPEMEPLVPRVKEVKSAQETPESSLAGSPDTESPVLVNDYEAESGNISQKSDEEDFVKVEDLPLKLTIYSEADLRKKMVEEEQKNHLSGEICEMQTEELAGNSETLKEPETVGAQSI

These are yes or no findings as the source states them, for the method shown. For some of these results: Binding seen in cells or lysates may run through a third protein. Some binding calls cover weakened binding; strength is not graded here. For some of these results: Where a sequence is shown, tags or fusion partners need not be part of it.

Test [1] addresses ubiquitin-specific peptidase 9, X-linked (USP9X), endogenous (human (endogenous in HeLa, MCF-7, HEK293T, U2OS)) (UniProt Q93008). Description: co-IP; validation of interactors identified by mass spectrometry (Supplementary Fig. 1a); cells and bait not given.
Test [2] addresses T1, FLAG-CEP131 (human) (UniProt Q9UPN4).
T1 sequence: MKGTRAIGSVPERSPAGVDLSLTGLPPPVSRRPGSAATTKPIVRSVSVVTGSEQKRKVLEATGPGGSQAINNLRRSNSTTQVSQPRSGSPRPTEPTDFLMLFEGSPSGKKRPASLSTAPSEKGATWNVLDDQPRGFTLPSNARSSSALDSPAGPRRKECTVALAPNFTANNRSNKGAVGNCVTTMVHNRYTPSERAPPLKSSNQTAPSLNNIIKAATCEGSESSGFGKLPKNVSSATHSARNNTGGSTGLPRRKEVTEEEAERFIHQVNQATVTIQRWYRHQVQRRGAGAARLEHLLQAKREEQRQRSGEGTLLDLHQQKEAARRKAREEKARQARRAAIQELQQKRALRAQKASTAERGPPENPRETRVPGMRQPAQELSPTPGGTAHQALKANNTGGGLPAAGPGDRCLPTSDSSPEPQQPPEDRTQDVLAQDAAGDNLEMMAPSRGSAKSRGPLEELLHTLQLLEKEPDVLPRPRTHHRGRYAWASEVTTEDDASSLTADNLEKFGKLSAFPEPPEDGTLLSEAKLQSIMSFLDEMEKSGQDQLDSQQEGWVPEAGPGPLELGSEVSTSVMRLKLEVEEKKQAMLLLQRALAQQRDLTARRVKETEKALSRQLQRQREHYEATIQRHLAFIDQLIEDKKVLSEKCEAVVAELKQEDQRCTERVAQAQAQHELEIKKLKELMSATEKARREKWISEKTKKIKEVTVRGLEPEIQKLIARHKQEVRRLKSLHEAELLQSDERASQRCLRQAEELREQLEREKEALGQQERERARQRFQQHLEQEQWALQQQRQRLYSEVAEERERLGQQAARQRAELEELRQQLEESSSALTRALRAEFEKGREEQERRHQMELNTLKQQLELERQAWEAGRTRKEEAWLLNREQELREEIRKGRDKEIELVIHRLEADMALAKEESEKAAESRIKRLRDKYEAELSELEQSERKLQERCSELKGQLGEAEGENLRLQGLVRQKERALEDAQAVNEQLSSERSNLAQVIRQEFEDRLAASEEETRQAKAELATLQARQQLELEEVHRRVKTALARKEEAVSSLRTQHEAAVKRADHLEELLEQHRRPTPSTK
Briefly: SEC; FLAG-CEP131 anti-FLAG affinity eluate from HeLa cells fractionated on Superose 6 gel filtration; fractions immunoblotted (Supplementary Fig. 1b).

Consider “PRMT5 (from UniProt O14744 1-637) (enzyme)”, for which the binding result in test [1] is recorded as “binds”. On to “PCM1 (pericentriolar material 1), endogenous (from UniProt Q15154 1-2024)”, for which the binding result in test [2] was “binds”.

B1: PPM1B (enzyme, UniProt O75688 1-479)
chain: MGAFLDKPKTEKHNAHGAGNGLRYGLSSMQGWRVEMEDAHTAVVGIPHGLEDWSFFAVYDGHAGSRVANYCSTHLLEHITTNEDFRAAGKSGSALELSVENVKNGIRTGFLKIDEYMRNFSDLRNGMDRSGSTAVGVMISPKHIYFINCGDSRAVLYRNGQVCFSTQDHKPCNPREKERIQNAGGSVMIQRVNGSLAVSRALGDYDYKCVDGKGPTEQLVSPEPEVYEILRAEEDEFIILACDGIWDVMSNEELCEYVKSRLEVSDDLENVCNWVVDTCLHKGSRDNMSIVLVCFSNAPKVSDEAVKKDSELDKHLESRVEEIMEKSGEEGMPDLAHVMRILSAENIPNLPPGGGLAGKRNVIEAVYSRLNPHRESDGASDEAEESGSQGKLVEALRQMRINHRGNYRQLLEEMLTSYRLAKVEGEESPAEPAATATSSNSDAGNPVTMQESHTESESGLAELDSSNEDAGTKMSGEKI
Consider B1, for which the binding entry in test [1] was “binds”.

B2: IPO5 (protein, UniProt O00410 1-1097)
chain: MAAAAAEQQQFYLLLGNLLSPDNVVRKQAEETYENIPGQSKITFLLQAIRNTTAAEEARQMAAVLLRRLLSSAFDEVYPALPSDVQTAIKSELLMIIQMETQSSMRKKVCDIAAELARNLIDEDGNNQWPEGLKFLFDSVSSQNVGLREAALHIFWNFPGIFGNQQQHYLDVIKRMLVQCMQDQEHPSIRTLSARATAAFILANEHNVALFKHFADLLPGFLQAVNDSCYQNDDSVLKSLVEIADTVPKYLRPHLEATLQLSLKLCGDTSLNNMQRQLALEVIVTLSETAAAMLRKHTNIVAQTIPQMLAMMVDLEEDEDWANADELEDDDFDSNAVAGESALDRMACGLGGKLVLPMIKEHIMQMLQNPDWKYRHAGLMALSAIGEGCHQQMEGILNEIVNFVLLFLQDPHPRVRYAACNAVGQMATDFAPGFQKKFHEKVIAALLQTMEDQGNQRVQAHAAAALINFTEDCPKSLLIPYLDNLVKHLHSIMVLKLQELIQKGTKLVLEQVVTSIASVADTAEEKFVPYYDLFMPSLKHIVENAVQKELRLLRGKTIECISLIGLAVGKEKFMQDASDVMQLLLKTQTDFNDMEDDDPQISYMISAWARMCKILGKEFQQYLPVVMGPLMKTASIKPEVALLDTQDMENMSDDDGWEFVNLGDQQSFGIKTAGLEEKSTACQMLVCYAKELKEGFVEYTEQVVKLMVPLLKFYFHDGVRVAAAESMPLLLECARVRGPEYLTQMWHFMCDALIKAIGTEPDSDVLSEIMHSFAKCIEVMGDGCLNNEHFEELGGILKAKLEEHFKNQELRQVKRQDEDYDEQVEESLQDEDDNDVYILTKVSDILHSIFSSYKEKVLPWFEQLLPLIVNLICPHRPWPDRQWGLCIFDDVIEHCSPASFKYAEYFLRPMLQYVCDNSPEVRQAAAYGLGVMAQYGGDNYRPFCTEALPLLVRVIQSADSKTKENVNATENCISAVGKIMKFKPDCVNVEEVLPHWLSWLPLHEDKEEAVQTFNYLCDLIESNHPIVLGPNNTNLPKIFSIIAEGEMHEAIKHEDPCAKRLANVVRQVQTSGGLWTECIAQLSPEQQAAIQELLNSA
For the molecule B2, the binding entry in test [1] is reported as “binds”.
